Measured values: IntAct's records for PubMed 20485341

B1: Myeloid differentiation primary response protein MyD88 (Homo sapiens), Q99836-1 (parent)
chain: MAAGGPGAGSAAPVSSTSSLPLAALNMRVRRRLSLFLNVRTQVAADWTALAEEMDFEYLEIRQLETQADPTGRLLDAWQGRPGASVGRLLELLTKLGRDDVLLELGPSIEEDCQKYILKQQQEEAEKPLQVAAVDSSVPRTAELAGITTLDDPLGHMPERFDAFICYCPSDIQFVQEMIRQLEQTNYRLKLCVSDRDVLPGTCVWSIASELIEKRCRRMVVVVSDDYLQSKECDFQTKFALSLSPGAHQKRLIPIKYKAMKKEFPSILRFITVCDYTNPCTKSWFWTRLAKALSLP
partner: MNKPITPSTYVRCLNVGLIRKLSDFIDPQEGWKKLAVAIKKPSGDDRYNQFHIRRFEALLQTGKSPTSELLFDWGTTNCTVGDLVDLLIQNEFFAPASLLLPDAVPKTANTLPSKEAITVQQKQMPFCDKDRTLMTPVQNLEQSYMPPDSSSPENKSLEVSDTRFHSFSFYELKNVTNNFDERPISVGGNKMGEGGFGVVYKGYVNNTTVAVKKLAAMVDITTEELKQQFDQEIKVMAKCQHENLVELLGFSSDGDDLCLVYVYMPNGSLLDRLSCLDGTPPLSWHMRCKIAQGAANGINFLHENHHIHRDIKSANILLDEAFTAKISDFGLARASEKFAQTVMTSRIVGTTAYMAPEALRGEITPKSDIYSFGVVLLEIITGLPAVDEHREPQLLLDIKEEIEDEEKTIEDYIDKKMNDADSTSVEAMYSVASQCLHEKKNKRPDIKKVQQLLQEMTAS

Variants of: B1
Details: with irak4_human IRAK4, Q9NWZ3

Effect of a mutation on the interaction, disrupting interaction:
V43D
A44E
I61A
D55A
R62E
Y58A;R62A
E52K
